± gives the standard deviation of the averaged measurements. Over roughly 4,100 sequences, “arbitrary fluorescence units” has its median near 780; the highest 2% begin near 22,000. The list shows a part of the results.
Each sequence was assayed against T1, ETS1 (UniProt P14921) (assay: ETS1 binding intensity (PBM fluorescence), ETS1 alone (arbitrary fluorescence units); higher = stronger binding). Conditions: ETS1 concentration 1 nM; RUNX1 concentration 0 nM.
T1 sequence: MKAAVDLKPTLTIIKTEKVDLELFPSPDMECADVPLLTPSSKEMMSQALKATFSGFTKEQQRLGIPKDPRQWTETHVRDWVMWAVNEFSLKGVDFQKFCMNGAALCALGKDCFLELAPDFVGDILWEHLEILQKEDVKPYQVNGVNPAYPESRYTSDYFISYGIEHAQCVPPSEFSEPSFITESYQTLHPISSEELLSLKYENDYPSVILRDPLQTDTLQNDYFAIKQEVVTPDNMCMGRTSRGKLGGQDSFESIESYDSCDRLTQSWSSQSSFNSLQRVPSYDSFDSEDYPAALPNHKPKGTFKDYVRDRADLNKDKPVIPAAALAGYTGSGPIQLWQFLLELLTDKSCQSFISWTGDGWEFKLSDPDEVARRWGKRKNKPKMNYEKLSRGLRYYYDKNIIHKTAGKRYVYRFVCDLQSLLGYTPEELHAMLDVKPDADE
In short: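 Double-stranded Agilent 4 × 180k arrays held 36-bp genomic probes whose RUNX1 partner site was mutated, and these were incubated with 1 nM full-length recombinant human ETS1 in the absence of RUNX1 under standard PBM protocols. Bound protein was labelled with anti-ETS1 antibody (Cell Signaling Technology 14069) plus an Alexa488-conjugated secondary and read on a GenePix 4400A, with four spots printed per sequence. Binding level is reported as raw spot fluorescence intensity summarised over replicate spots.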

| Sequence | ETS1 binding intensity |
| --- | --- |
| CTTGGCAGTTCCGTCCACTTCAGCTGCAGCGTCCCT | 972 |
| GTAAGATTCGGGGTTGAGCTTCCGTTTTACACTTGG | 1390 |
| TACTTCTTCCTGGCAGAGACCGGGAGTGCAGTCCGC | 2410 |
| GGGTTCTCGCAGCAACACGTACCGGGAAGCGTTTGG | 310 |
| TCGTGCAACTTCCCCAAATGTTGGAAGCTCGACTGC | 847 ± 69 |
| AGGGCGCCGCTTCCGGGAGCCCCCAAGCGGCCTCCG | 9050 |
| AACACTATTTCCTTTCTTGCTGCTCACATTTTAACA | 4990 |
| GGCCTCAGGAAACTTAACAGTTTTGGCAGAAGGTGA | 393 |
| AGCACCCCACATCCTGCACCCCAGAACCCAGATCCC | 5960 |
| ACTGCCGAAGCCCAGGGGCCCGAGAAGGAAATCGCT | 367 |
| GCGGACAACGAGCCTCCTGGGTGCCGGACGCAGATG | 371 |
| GGTGGAGGCGCTTGGCAGGGAGGAAGGAGGGTGCCG | 498 |
| TGGTTCCGCCCTCGGTGCCTGCAGGGGACAGCGGAG | 2520 |
| CAAATACAGTGTGATTTCACAGTAGGAAGTGGTGTT | 387 |
| TCCTCTCCTTTCCGCGAGACCTTGCGCGCTTATCCA | 497 |
| CTTTCTGTCGAGGTCAGGTTTCCTCTCCTTTATGAA | 437 |
| GACAAAGCAAGCGCCAGGCAGATCCCGGAAGCCGCC | 549 |
| AAGGTCGAGGTCTCGGCTTCCCCGGAACTTTTTGCT | 295 |
| GCGGAGGCGGAAGTCGTGCTGCTGCTGAGCACGGCT | 5100 |
| TGCCTCTGAACCTCGCTCTCGCGAGTTTCCGTAGCC | 363 |
| CAGCCCTCTTCCTGCCTGTCCGTGGCTGGTGAGGTT | 5690 |
| TTTACGGCGAGAGTCAAGTTCCCACATCCTGTTGAA | 2640 |
| ATGACTCCAGGAAGATCCTCCTGTGAGCACTGCCCC | 369 |
| CCAACGACAGCTCGGCAGGCGCCACAGGAAGGGCCC | 340 |
| ATTTGCTGCGACCCTCAGGCGCTATCCGCTGCCGGG | 296 |

| Sequence | ETS1 binding intensity |
| --- | --- |
| GCCATGGCCACTTCCTGCTTGTAACGACAGCCCAGA | 21300 |
| TGAGGTGCTAAAGCACCAAGCACTTCCTGCTGTTAG | 3380 |
| TTGACCCCAAAGGAAGGGCAGATGGCAGGAAACAGG | 488 |
| CCCGCCGGAAGGACGCGTCTGCGTCTCTTCGGCGAG | 2680 |
| CAGAGGGTTATCCACCAACGGAAGCTCAATTTCAAC | 642 |
| ACCTGCACTTCCTCCTCCCTAGATCGCACCCTTCTC | 5560 |
| TCATGTACGGGAAGCCCAGCTCCCTCAGCGCGCCCA | 363 |
| TCAGCTGGGGTGGGAGGATCTCCTATCAGGATGGCT | 525 |
| CCGTGGGCGTTTAAAAGGCCCCGGATGTTCAGGGGG | 1170 |
| GGGTCGCGGCCTTCCGGCGAACGCGGCTACCGTGGA | 2870 |
| GCCCCTCTGCAGTCGCAGCCCCGCCGGAAGTGTGGC | 1370 |
| TACTCTAAAGCACTTCAAACCTCCACTTCCTGCCCC | 2240 |
| GTGAGGTAGGGCTAAGTTTCTCCCCAGGAAACCCCA | 436 |
| AGGAGAACTTCCGCCCTTACTATATTAACGCCGGTA | 15300 |
| GGAGGGCTTCCTGCCCACCTCCACCTACAGCAGCTG | 5400 |
| AGCTTTTCTGAGAGCGCGGGCAGGATGTGACCTCCC | 675 |
| TTAAAATCCACCTGAGACTCCATTTCCCGGCGTGCT | 501 |
| GGGCAGGAAGGAAGAGGGCTCCTCCCCCCAAGCTCT | 1030 |
| CAGTGAGTTGAGGGTTGGTTTCCTCTAGACTCTCGT | 719 |
| TAAATCGGAAACTCGCCGCTCAGCCTGCAGCCGCCG | 582 |
| CCTTCCCCTTCCGGAGAGCCCTCCGCTGGGTCCTAA | 4250 |
| CGGGCCTGCAGCAGATCCTGGATCCGGAATCTCCCG | 445 |
| GTTCTTCCACGTCCGCGTTACCTACAACGGCAGTGG | 816 |
| GTGTAACGTCCGTATGCATATCTATTTGGGGCCACC | 499 |
| GCATGCTCAGTTTCGGGCGGCGTCCGGAGGAGGTGG | 419 |

| Sequence | ETS1 binding intensity |
| --- | --- |
| ATGACTTAGCAACATCCTGACAACCTCTACATTGTC | 1680 |
| ACAAAACAAACACATCCCCCAAACCTCCAAACTACA | 532 |
| GACCCACTGCTGTCATGCTGCTTCCTGCCCAACCCG | 2240 |
| CTCCGCGCGGGCGCTGAGACTCCTGGGAAGTGTGGT | 338 |
| ACAGGTTCAGGAAGCGGCCGTGCTTGTTAGTGGTGT | 611.2 ± 0.9 |
| TGGACACCGGGAAACTGAGCGGCCTGCTGGTCCAGA | 422 |
| GGGGCAGCTTCCGGCAGGAGAGCTCGCATTCACGGC | 20700 |
| AACCCTGAGACAGCAGCAGCCACTTCCTGGGTGAGG | 1970 |
| GACAGAGGAAACTAGGTGTGACAACTACAAACAGCT | 620 |
| AACAGAGTAGGTTGTAAGGGACTTCCTGTGCATATA | 3500 |
| GGTTGGTAGTTCGATCCCACCCAGGGACGGAAGTCG | 555 |
| CCTGTACGGAAGCTACTCTGGTTTCATGTGATTTCG | 589 |
| AAAGGGAAGTTGGCGGGAGTTCAAATCCACCGGGGC | 575 |
| GATGAAAGAGGAAGTTCTCAAGCCACCTTGCCAGTG | 1950 |
| GCAATCTTGACCCCAACATGGAGACAGGAAATCAAA | 1090 |
| GTTGGGTGGGGAAGTGGATGGTGCTTTTGGCAGAGG | 639 |
| GTTTCAGTATTTCCTGGTGCGGCGTACCTCACCTAC | 4400 |
| GGGGCAGCTTCCGGCAGGAGAGCTCGCATTCCCGGC | 14700 |
| AACTTCCTCCGCGCGGGGCCACTGCTACCCCAAAGG | 8780 |
| TCCCGCCTACCTCGAAAAACGCGGAAATACGGTGGC | 428 |
| AGCCTGAACTGAGGAAACTACAGCCCCAGATTGCCT | 501 |
| CAGCAATACGACAAGCTGTTTAAGGATGTTCCCTTG | 789 |
| GGTGGCCGCCGGAAGTGTGACCTCGGGAGGGGAGTG | 9890 |
| GGTCTGGAGGATGTTTGCAGCTGCTGTAGGTGGTGG | 504 |
| GGCGTGCTTTCGGCCCCGGCGCAGCCGGATCTGGCA | 329 |

| Sequence | ETS1 binding intensity |
| --- | --- |
| GGGCAGGCCGGATGTGGGAGACCCCAAAGCCCAAGG | 11000 |
| GGGATCCTTCCGCTCCGGGTTAACCCCGAGCGCGCC | 5110 |
| TACAGGAACTTCCTGCGCGGCTGCTGTCGTTGCGAG | 7850 |
| ATCTTAAGTGTTTCCTGACACCAGAAATCCCCAAAC | 1600 |
| AGGGTGTACTCGGAAGTTTCGAGTGGCTGCTTGGTT | 414 |
| GGAGGGGGAAGTGGGCGGCTCAGCGCCCGCCATCTT | 877 |
| GTTTCCACTTCCTGCTGTGCAGCAGTACCAGCAAGA | 19700 |
| CGAAGCCGGAAATGCTGAGTGCGCGGGGCCGAACGT | 12500 |
| GTAAATAAAGAGGAAGTCCCTATGAGGGGGATGGGG | 1570 |
| CTGGCCCCTTCCTGCACCTGGGCTGTCCCCAGAGCA | 2050 |
| GGTCACGTGTCCACGGGGACCGGAAGTGGCGCCCGG | 14400 |
| ACCTCTTCGGCGTCACTGGGAGCCCGACGGAAAACT | 429 |
| GGGGACCGGAAAGGGAGGGGTGGGCCGTAGGCGCCG | 4430 |
| CTTAAAACCCCAACACAATAACACCAGAGGAAATGA | 526 |
| ACAGTACACGCACACCTAGCTTTCCTGTCTGCAGAG | 564 |
| GCTCGTTTGGGGTTACTGACATCCGGCCTTCATTTC | 5140 |
| CCGCTGACATCCGCTTGGCCTGCAGCTTCTTTCTGT | 12100 |
| GTAGAGACAGGAAATTATGTTGGATTTCTTGCAGAA | 3700 |
| CAGAAAAGGCAGGAAGTGGTACAAACCCCAAAAGGC | 9240 |
| AAAGTATCTTCTGAGGTGAATCGGAAACAAAACTCA | 509 |
| GCAACAGGAAGGACCAAGTCCCCTCCCGAAATTTTA | 1790 |
| CGAGTCAGGAAATCACAGCTCTGAGGGTGGGCTCCT | 664 |
| TAGCCACGAACCGGAAACGTTAAACTACAGCTCCGT | 12600 |
| CGGCGGAAGGCGGACTCTCGCGGGAGCTACAAAGAG | 466 |
| TATTTCCTCCTGCAGGTCTGTTCTTTGCCGCCTGAA | 11900 |

| Sequence | ETS1 binding intensity |
| --- | --- |
| GCCTTCGGTGTGGACTCGCATCATTTCCTCTTTCTG | 847 |
| ACGTCTGTTTCCTGTGATTGAAATCGCAAGAAGAAG | 9820 |
| ATCTTCCGTAGCAGTCAGGTGTTTTGGGGTTTGCAG | 1690 |
| GGCCGCGCTGGGGTGTGTACAGATTTCCGCGGCGCC | 381 |
| GCTGCCTTGAGGGCACGGTAGTTCCGCCGGGTCTGG | 314 |
| GCCGGAAGCCACGCAGGGCCACGTCTGGGGTTCTGA | 1040 |
| CCCCGAGGTCGTCGCGCGAACTCCTTCCGCGCGTCG | 362 |
| CTGGGCCGTAGTTCAGGTGGCTGGCGGAAACGGGAG | 510 |
| GCTCGCCGCGCGTTCGACAACCCCATCCTGCGCTCG | 351 |
| CTCCATCTCCCAGAAGCCCTCCTTCACTTCCGGCTC | 2020 |
| TCCAAATCACATGAAATAAGCAAGGGAAGTGGCAGC | 544 |
| GACCATGGAGCTGCAGCCGAGTTCCGTGTCCACTTC | 317 |
| TTCTTTGGTCAACCCCAAGCCTCTTCCGCGTCTCGC | 445 |
| AACCATTACAGGATGTGAGATTCAAAGCACTAACAG | 5220 |
| ACGCCATTCGGTGGCACGGGGATGTGTAAAAATCGT | 343 |
| CCGCCGCGCGCCGGATGCTAAGACCTCGATTTCCCC | 1420 |
| TAATACAGTTCTGGTTAAAGGAAGCTCATTTTTTTC | 488 |
| TGGCCGGAATCTCCGGACTGAAAATCCGCTGTCCTA | 475 |
| TGAGGAAGTGTAAGTCACAATAAGAAGTCACATATA | 552 |
| AGCAGCTTCCCGTCTGAGGTGAAGACAGCCCTCAGC | 7140 |
| CCCTCATCTTCCTGCTTCAGGCAGCTGTGATTTACC | 2890 |
| ATGGATGGGGTTGCTTGCGTGAGGAAATACTTGATG | 524 |
| TACCCCGCCGGAAGCCCCCTGCTCTCTGGGAACCGG | 1900 |
| ACTGAGGGCTACCTCCCCCACACCACTTCCGCCAAG | 2040 |
| ACTGTTATTGTAGTTTTTGGGGACTTCCTCTTTGTC | 871 |
